According to article PMC6721692, “Extracellular Juxtamembrane Motif Critical for TrkB Preformed Dimer and Activation” (Cells, 2019):

Biological target: the molecule itself
Assay: native gel or EMSA; purified recombinant TrkB ECD (0.33 μM) without BDNF, overnight at 4 °C; native PAGE with neither SDS nor β-ME, Western blot

B1: TrkBECD365 (human TrkB extracellular domain 1 to domain 5, without EJM) (domain or fragment)
chain: not shown
notes: A gp67 signal peptide was put at the N-terminus for secretion (pFastBac Dual); also called TrkB ECD lacking EJM; source: baculovirus-infected SF9 cells, secreted, purified (Ni-NTA, Superdex-200); not shown: His6, C-terminal, kept
  stoichiometry N: 2
